The list shows a part of the results.
system: T1, C. trachomatis L2/434/Bu expressing GFP (CTL2-GFP); set-up: species or system HeLa; C. trachomatis total inclusion area by high-content imaging, normalised to DMSO; conditions: total inclusion area; 28.5 h, 10 µM; inhibitor
T1 construct: L2/434/Bu GFP intracellular growth in HeLa cells
How it was run: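 Imaging read-out: GFP inclusions and Hoechst nuclei captured by high-content imaging after fixation. Inclusion area/number = chlamydial growth; nuclei count = host cell viability. MIC calculated per earlier method.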

SMILES	% of control remaining
CN1CCN(C(=O)CCn2c(C(F)F)cc3cccnc32)CC1 [CBK285023]	108.146
COC(=O)c1ccc(-c2ccc(Cl)c(Cl)c2)nc1 [CBK149231]	118.373
COc1ncc(-c2cc(N3CCN(c4ccccn4)CC3)ncn2)c(OC)n1 [CBK037707]	141.544
O=C(CC1C(=O)N(c2cccc(Cl)c2)C(=O)N1CCc1cccs1)Nc1ccccc1 (stereo not shown) [CBK267499]	93.3533
Cc1cc(NS(=O)(=O)c2ccc3oc(=O)ccc3c2)n(C)n1 [CBK067250]	108.361
O=c1[nH]c(=O)c2cc(S(=O)(=O)NCCN3CCc4ccccc43)ccc2[nH]1 [CBK286360]	139.594
Oc1cccc2ccc(/C=C/c3ccc(-c4ccccc4Cl)o3)nc12 [CBK264445]	115.221
CC1CCC(NC(=O)CN2C3CCC2CC(O)(c2ccco2)C3)CC1 (stereo not shown) [CBK284036]	94.6647
O=c1c2cnn(-c3ccccc3)c2nc(Cc2ccccc2)n1-c1cccc2ccccc12 [CBK262316]	134.845
CCOC(=O)N1CCN(S(=O)(=O)c2ccc3oc(=O)ccc3c2)CC1 [CBK305870]	62.4324
NC(=O)CN1CC2(CCN(Cc3ccc(Cl)c(Cl)c3)CC2)c2ccccc21 [CBK126775]	74.5825
Cc1cc(C)c2[nH]c(C(=O)NCc3c(C)n[nH]c3C)c(C)c2c1 [CBK283254]	92.65
Cc1cccc(N2CCN(CCCC(c3ccc(F)cc3)c3ccc(F)cc3)CC2)n1 [CBK025113C]	84.1647
CCN(CC)Cn1nc(Nc2ccccc2)n(-c2ccccc2)c1=S [CBK261672]	111.189
O=C(O)c1cc2oc3ccccc3c3ccccc3oc2cc1C(=O)Nc1cccc([N+](=O)[O-])c1 [CBK265500]	102.416
O=S1(=O)CCC(SCc2ccccc2)C1 (stereo not shown) [CBK019237]	113.36
CC(=O)c1c(C)nn2c3ccccc3n(CCN3CCOCC3)c12 [CBK262709C]	99.1266
O=C(CSc1ccccc1[N+](=O)[O-])Oc1ccccc1 [CBK265501]	92.9205
CCn1c(C2CCN(C(=O)CCCn3cncn3)CC2)nn(C)c1=O [CBK307326]	52.2244
Cc1ccccc1OCC(=O)N1CC(=O)Nc2ccccc21 [CBK300535]	67.4735
Clc1ccc(COc2cc(N3CCCN(CC4CC4)CC3)ncn2)cc1Cl [CBK084070]	99.3204
CCOc1ccc(S(=O)(=O)N(CC)CC(=O)O)cc1C [CBK269770]	74.1291
CCc1nnc(NS(=O)(=O)c2ccc(NC(=S)NC(=O)c3ccco3)cc2)s1 [CBK018917]	32.997
O=C(O)CCc1ccc(-c2cc(N3CCN(c4ccccn4)CC3)ncn2)cc1 [CBK037821]	81.5849
CC(=O)c1ccc(N(C)C)cc1 [CBK033830]	55.7241
CNC(=O)c1cccc(NC(=O)c2cc(Br)cnc2NCC2CC2)c1 [CBK076380]	70.4596
COc1cc(C2NC(C(=O)O)Cc3c2[nH]c2ccccc32)cc(OC)c1OC (stereo not shown) [CBK219193]	90.2573

SMILES	% of control remaining
CC(=O)N1CCc2c(nc(N(C)C)nc2NCCCOC(C)C)C1 [CBK306745]	97.9014
Cn1c(CN2CCN(C3CCCC3)C(=O)C2)nc2ccccc21 [CBK281577]	86.0729
Cc1ccc(C2C3=C(CC(C)(C)CC3=O)Nc3[nH][nH]c(=O)c32)o1 (stereo not shown) [CBK288147]	108.639
Cc1ccc(C(=O)N(C)C2CCCCC2)cc1C [CBK083667]	111.353
Cc1ccnc(Sc2nc3c(c(=O)[nH]c(=O)n3C)n2CCCc2ccccc2)n1 [CBK269353]	91.7489
O=C(NCC1CCCO1)c1cc(S(=O)(=O)N2CCOCC2)c(Cl)cc1Cl (stereo not shown) [CBK269691]	61.8037
COc1cccc(C2(O)CCCC3CN(C(C)=O)CC32)c1 (stereo not shown) [CBK283242]	108.346
COc1cc(OC)cc(C(=O)Nc2cc(C)c3c(=O)oc4ccccc4c3n2)c1 [CBK291221]	85.2953
CCCc1cc(C(N)=O)cc(CCC)c1OCC [CBK015537]	85.2729
CC1CCCN(Cc2ccccc2[N+](=O)[O-])C1 (stereo not shown) [CBK261862]	78.7564
O=C(NC(Cc1ccsc1)c1nccs1)C1CC2C=CC1O2 (stereo not shown) [CBK285096]	91.1527
O=C1CC[C@@H](NCc2ccoc2)[C@H](c2cc(F)cc(F)c2)N1 [CBK282912]	82.1354
Cc1ccc(C)c2nc3c(cc12)CN(C1CC1)C(=O)CO3 [CBK282858]	109.214
CC(C)/N=C1/N[C@@H]2CS(=O)(=O)C[C@H]2O1 [CBK019692G]	87.21
CN(C)c1ccc(/C=C2/C(=N)N3N=C(c4ccccc4Cl)SC3=NC2=O)cc1 [CBK097554]	90.0788
CCn1nc(C(C)C)cc1C(=O)NCCN1CCC(C)CC1 [CBK282107]	82.915
O=C1N[C@@H]2CCN(C(=O)Cc3ccc(O)cc3)C[C@@H]2C/C=C/CCOc2ccccc21 [CBK292043]	85.3444
CS(=O)(=O)N(CC(=O)Nc1ccccc1C(F)(F)F)Cc1ccc(Cl)cc1 [CBK267854]	122.138
CCCC12CN3CC(C)(CN(C1)C31C(=O)Nc3ccc(C)cc31)C2=O (stereo not shown) [CBK268491]	109.229
O=C(Nc1cc2ccccc2c(Br)n1)N[C@@H]1C[C@H]1c1ccccc1 [CBK063276]	95.9595
Cc1ncc(CN2CCCC(Cc3nc4ccccc4[nH]3)C2)s1 (stereo not shown) [CBK281902]	112.264
Cc1ccccc1C1(O)CCN(CC(O)c2ccccc2)CC1 (stereo not shown) [CBK282491]	74.3605
O=C(O)COc1ccc2c(=O)c(Oc3ccc(Cl)cc3)c(C(F)(F)F)oc2c1 [CBK296087]	133.676
O=c1cc(CN2CCC[C@@H]2CN2CCCC2)[nH]c(=O)[nH]1 [CBK149108]	74.9798
CC(=O)N1CCCc2cc(C(O)CN3CCN(c4cccc(C)c4)CC3)ccc21 (stereo not shown) [CBK286457]	89.1353
CCc1nc2ccc(C(=O)NCCNC(C)=O)cn2c1N(C)Cc1ccc(NC(C)=O)cc1 [CBK145612]	93.3256
O=C(NCC(c1ccccc1)c1ccccc1)N1CCN(c2ccccc2)CC1 [CBK155197]	73.6974

SMILES	% of control remaining
Cc1cc(C)n(C(C)C(=O)N(C)CCn2ccnc2C)n1 (stereo not shown) [CBK281759]	110.625
CCN(CC)C(=O)c1ccsc1NS(=O)(=O)c1cc(Br)ccc1OC [CBK042327]	106.22
CN(c1ncccc1C#N)C1CCN(CCC(N)=O)CC1 [CBK016793]	49.0043
COc1ccc(-c2n[nH]cc2/C=N/NC(=O)c2cc(Br)ccc2O)c(OC)c1 [CBK262067]	103.043
CC(=O)N/C(=C/c1ccc([N+](=O)[O-])cc1)C(=O)Nc1cccc(C(=O)O)c1 [CBK264495]	99.019
Nn1cnn2c(SCC(=O)c3cccs3)nnc12 [CBK263184]	102.587
COc1c(C)cc(Br)cc1C(=O)Nc1ccccc1-c1nc2ccccc2s1 [CBK267155]	109.456
Cc1cc(C)c2c(NCc3ccc(C)o3)n[nH]c2n1 [CBK284621]	72.6123
COc1cncc(-c2ccc(N3CCN(c4ccccc4C#N)CC3)nc2)c1 [CBK037738]	99.9909
Cc1cc(OCCCC(=O)Nc2cccc([N+](=O)[O-])c2)cc(C)c1Cl [CBK267978]	108.671
SC1=NC2(CCCC2)NN1c1ccc(Cl)cc1 [CBK288391]	96.8124
O=c1nc(NS(=O)(=O)c2ccc(Oc3ccccc3)cc2)c(F)c[nH]1 [CBK067571]	86.0359
NS(=O)(=O)c1ccc(NC2=NC(=O)C(CC(=O)Nc3ccc(Br)cc3)S2)cc1 (stereo not shown) [CBK266616]	102.111
CC(C)OC(=O)C(NC(=O)OC(C)(C)C)c1ccccc1 (stereo not shown) [CBK170399]	36.9091
CCC(=O)N1CCN(c2ccccc2NC(=O)c2ccc(C#N)cc2F)CC1 [CBK270110]	73.8569
COc1ccc(-c2cn3ccnc3c(N3CCCCC3CO)n2)cc1OC (stereo not shown) [CBK066230]	88.908
O=S(=O)(c1ccc(Cl)s1)N1CCN(c2ccccn2)CC1 [CBK270305]	80.2879
CCS(=O)(=O)Nc1cc(C(F)(F)F)ccc1Cl [CBK111339]	91.3414
O=C(O)C[C@@H]1CCN(C(=O)Nc2ccccc2)C[C@@H]1CCN1CCCCC1 [CBK288782]	102.74
NS(=O)(=O)c1ccc(NC(=O)c2ccc(NC(=O)C3COc4ccccc4O3)cc2)cc1 (stereo not shown) [CBK266573]	114.834
CCN1C(=O)CC2(C1=O)C(=O)N(Cc1cccc(CN3C(=O)CCC3=O)c1)c1ccccc12 (stereo not shown) [CBK075508]	104.462
Cc1nc2ccc(C(=O)NC(C)(C)CN3CCCC(C)C3)cc2[nH]1 (stereo not shown) [CBK282629]	139.826
CCOC(=O)Cn1ccc2ccnc(-c3cccs3)c21 [CBK285200]	99.6836
COc1ccccc1-c1nccnc1NCc1cc(OC)c(OC)c(OC)c1 [CBK036642]	130.784
COc1cc(C2CC(=O)N(c3cc(C)on3)C(=O)C2)cc(OC)c1OC [CBK006810]	103.34
